Test results taken from the supplement of paper PMC11417369.
± gives the standard deviation of the averaged measurements. Some of the results follow.

The sequences below were run on PfAP2-LT AP2 domain (GST-tagged) (assay: gcPBM binding intensity (ln(normalized median fluorescence intensity)); higher = stronger DNA binding).
How it was run: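 Alexa488 anti-GST antibody, scanned at 488 nm, detected GST-tagged P. falciparum DNA-binding domains that had been expressed in E. coli and incubated for 1 h on an Agilent 4 × 180k array. The array carried primer-extended double-stranded 36-bp intergenic genomic probes and negative controls. Binding intensity is the highest Masliner-normalised natural-log median intensity across replicate spots of either orientation of each probe.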
In the case of “TTTATTTTATCATTTGCACACGCACCCAGACATAAA [CACACA_site4347]”, the “gcPBM binding intensity (ln)” value is reported as 9.19 ± 0.35.
For “TTTTTTCATTAGAAAACATGCAAATGTTTTTCACTT [TGCATGCA_site127]”, the “gcPBM binding intensity (ln)” value was 8.48 ± 0.54.
In the case of “TAACTAAGGAATAATACACACAGAAATATAGATTTA [CACACA_site6293]”, the “gcPBM binding intensity (ln)” value is reported as 9.04 ± 0.43.
TCTATTTTCTTATGAATGCACTAATTTATAAAACGT was tested, and the “gcPBM binding intensity (ln)” value was 8.54 ± 0.49.
For “CAACAAAAATTATTTACACACAAAAGGCAAGGAAAT [CACACA_site1971]”, the “gcPBM binding intensity (ln)” value was 9.27 ± 0.35.
With “TAGTTATTTATATACACACACATACAGACAAATAAA [CACACA_site7577]” the “gcPBM binding intensity (ln)” value was 9.43 ± 0.29.
In the case of “TCTTAGATTATTTATTGTACTTATGCTTAAAAAATT [XGTACX_site3639]”, the “gcPBM binding intensity (ln)” value is reported as 8.37 ± 0.46.
For “GTCCAATAAGGAAGAGTGCAAAAATTAAATAATATA [GTGCAC_site9751]”, the “gcPBM binding intensity (ln)” value was 8.88 ± 0.58.
In the case of “CATGTAATATTAAACACACACTCATATAACACAATA [CACACA_site65]”, the “gcPBM binding intensity (ln)” value is reported as 9.38 ± 0.21.
“ATATATATTTATATATATATATATATATATATGTAT [GTGCAC_negctrl_site220]” was tested, and the “gcPBM binding intensity (ln)” value was 9.38 ± 0.15.
“AAAGAAAAAAAAAACACACACACACGCATTCAATAT [CACACA_site6169]” was tested, and the “gcPBM binding intensity (ln)” value was 10.1 ± 0.13.
In the case of “GAAAAAAAAGAAAAAACACACATATGATATATTTAT [CACACA_site1524]”, the “gcPBM binding intensity (ln)” value is reported as 8.78 ± 0.48.
“ATATTTTCTTTTTAAAGTACATATTTGATTACAATA [XGTACX_site8414]” was tested, and the “gcPBM binding intensity (ln)” value was 8.49 ± 0.45.
For “ATATATATATATATATGTACATATTTTTAATTATAA [XGTACX_site7444]”, the “gcPBM binding intensity (ln)” value was 9.33 ± 0.042.
For TAAAAAACAAAACAGGTGCTATATAATTTTCATTTT, the “gcPBM binding intensity (ln)” value was 8.57 ± 0.48.
“TCTATATATAAATATAAATATATATATATAATGTTA [TGCATGCA_negctrl_site92]” was tested, and the “gcPBM binding intensity (ln)” value was 8.37 ± 0.48.
With “ATAGAATAATATTGTAGTACTAAAAATATTCATTTT [XGTACX_site6447]” the “gcPBM binding intensity (ln)” value was 8.64 ± 0.45.
“ATTATAAATTAAAATACACACATATATACATAATAT [CACACA_site7337]” was tested, and the “gcPBM binding intensity (ln)” value was 8.92 ± 0.4.
For “AAGTATATACATATATGTACACATTGTCAGATAGAA [XGTACX_site1236]”, the “gcPBM binding intensity (ln)” value was 8.97 ± 0.39.
In the case of “TCTTTTTGTTCGTGTACACACATGAAATTTATAAAA [CACACA_site1619]”, the “gcPBM binding intensity (ln)” value is reported as 8.81 ± 0.35.
“TTGTTTCTTAAATTATTTATTTTATATTAAAAAAAA [XGTACX_negctrl_site224]” was tested, and the “gcPBM binding intensity (ln)” value was 7.96 ± 0.42.
In the case of “AAGAAAATGAAAAAGTAAAAACATATATTAAATATA [TGCATGCA_negctrl_site123]”, the “gcPBM binding intensity (ln)” value is reported as 8.61 ± 0.51.
For “TCGTAGTTACTATGGCAAGAAAATAAACGGTCTTGT [GTGCAC_negctrl_site684]”, the “gcPBM binding intensity (ln)” value was 8.91 ± 0.42.
“ATTCGTAGTTTTATGAATTAATATAATAAAAATTAA [XGTACX_negctrl_site181]” was tested, and the “gcPBM binding intensity (ln)” value was 8.34 ± 0.36.
“TAATAATATATATGAAGTACAATAACTTTTTGTTTT [XGTACX_site292]” was tested, and the “gcPBM binding intensity (ln)” value was 8.52 ± 0.49.
With “TTTATATGTATTAAGTGTACACATATAATCTATCTT [XGTACX_site4922]” the “gcPBM binding intensity (ln)” value was 8.86 ± 0.52.
In the case of “GTCAAATTTTTGTGCACACATATATAGTTATTATTA [CACACA_site2241]”, the “gcPBM binding intensity (ln)” value is reported as 9.33 ± 0.54.
With “TTTCTTTTCTCAGAAATTATTCAAATGAAAAAAAAT [TGCATGCA_negctrl_site44]” the “gcPBM binding intensity (ln)” value was 7.99 ± 0.44.
In the case of “AAAATACACGCATACACACACACACCCACCCATATA [CACACA_site639]”, the “gcPBM binding intensity (ln)” value is reported as 10.4 ± 0.14.
“TTACATATGGTTAGTAGTACATATATAAATGTAAAT [XGTACX_site7206]” was tested, and the “gcPBM binding intensity (ln)” value was 8.89 ± 0.64.
With “AAAAAAAAAAAAAAAACACACACATACACCCAAAAA [CACACA_site7910]” the “gcPBM binding intensity (ln)” value was 9.78 ± 0.23.
In the case of “TTTATAAAAATATACACACATACAAATATGCATATA [CACACA_site712]”, the “gcPBM binding intensity (ln)” value is reported as 8.85 ± 0.32.
For “GAAAAAAGGAAATAAAGAAAAAAAAAAATGAAATAT [XGTACX_negctrl_site318]”, the “gcPBM binding intensity (ln)” value was 8.64 ± 0.54.
“GTCATAAAAACATATACACACTTGAAATATAAAAAT [CACACA_site5315]” was tested, and the “gcPBM binding intensity (ln)” value was 9.12 ± 0.4.
With “AAACATGATTATTATAGTACAATTATAATTATTATA [XGTACX_site2590]” the “gcPBM binding intensity (ln)” value was 8.54 ± 0.4.
With “GTATACACATATATATGTACTTAATTATTTTATGTC [XGTACX_site6707]” the “gcPBM binding intensity (ln)” value was 9.01 ± 0.31.
“CAAAGGGAAATTAACACACACATATATATATATATA [CACACA_site2453]” was tested, and the “gcPBM binding intensity (ln)” value was 10.3 ± 0.2.
In the case of “CTGTTTAAAATATAAACACACATTGTTTGCTTTAGA [CACACA_site1301]”, the “gcPBM binding intensity (ln)” value is reported as 8.71 ± 0.4.
In the case of “ATTTTTTTACTGCAACCATATTTTTCCCTTTTATTC [CACACA_negctrl_site1282]”, the “gcPBM binding intensity (ln)” value is reported as 8.89 ± 0.51.
With “AAATAAAATTATAACTGTACGTTGTATGAAATAATG [XGTACX_site5462]” the “gcPBM binding intensity (ln)” value was 8.79 ± 0.45.
“TGTATATATATATAAAGTACATATAATATATATTTG [XGTACX_site5411]” was tested, and the “gcPBM binding intensity (ln)” value was 8.68 ± 0.4.
For “GTGTACATAGGTATAGCACACACAAATGTAGGTATT [CACACA_site9339]”, the “gcPBM binding intensity (ln)” value was 9.42 ± 0.34.
For “TCTATAAAGTTCCATACATGCGCCATCATTTATATT [TGCATGCA_site195]”, the “gcPBM binding intensity (ln)” value was 9.36 ± 0.45.
“ATTATAATTATTTTGTTGCACTATTTTTGTAGGCCA [GTGCAC_site9734]” was tested, and the “gcPBM binding intensity (ln)” value was 8.8 ± 0.49.
